In all, about 81,000 sequences were measured (“one-hybrid fitness for binding parS DNA”: median about -0.17, highest 2% from about 0.51 on). This is one part of the list.

The chains are these.
B1: Caulobacter ParB omega fusion; a variant is named by its letters at X, in order, B8GW30 (parent)
chain: MESVVVGEPGMSEGRRGLGRGLSALLGEVDAAPAQAPGEQLGGSREAPIEILQRNPDQPRRTFREEDLEDLSNSIREKGVLQPILVRPSPDTAGEYQIVAGERAWRAAQRAGLKTVPIMVRELDDLAVLEIGIIENVQRADLNVLEEALSYKVLMEKFERTQENIAQTIGKSXSHVANXMRLLXLPDEVQSYLVSGELTAXHARAIAAAADPVALAKQIIEGGLSVRETEALARKAPNLSAGKSKGGRPPRVKDTDTQALESDLSSVLGLDVSIDHRGSTGTLTITYATLEQLDDLCNRLTRGI

In the test the parent is B1. As to the kind of experiment: one-hybrid fitness for binding parS DNA (scaled: cognate 1, non-cognate 0); higher = stronger binding. Conditions: with parS DNA site. Summed up:
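On M9-minus-histidine containing 0.1 mM IPTG and 5 mM 3-AT, E. coli USO cells with a HIS3 reporter, site 19 bp from the promoter, grew 48 hours at 37°C to select Caulobacter ParB libraries randomised at four specificity codons. Plasmids from before and after were Illumina-sequenced, with three replicate libraries pooled and variants under 10 reads left out. Fitness is the log change in variant-to-wild-type read ratio, rescaled against cognate and non-cognate.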
For LDSA, the “one-hybrid fitness for binding parS DNA” value is at most 0.2.
With ATNL the figure was at most 0.2; with YVLS, at most 0.2; with VTEC, at most 0.2.
The same measure for QGEP: at most 0.2; for TVVP: at most 0.2; for AHNV: at most 0.2.
The same measure for RSYM: 0.288; for YNQP: at most 0.2; for PVEW: at most 0.2.
In the case of ANHE, the “one-hybrid fitness for binding parS DNA” value is at most 0.2.
The same measure for EDRV: at most 0.2; for QLMH: at most 0.2.
PPDP: the “one-hybrid fitness for binding parS DNA” value is at most 0.2.
With RNVL the figure was at most 0.2; with PEQK, at most 0.2; with PGAF, at most 0.2.
On to LYIC, for which the “one-hybrid fitness for binding parS DNA” value was at most 0.2.
The same measure for TYNT: at most 0.2; for RQRI: at most 0.2; for KLRD: at most 0.2.
The same measure for NALE: at most 0.2; for VVNN: at most 0.2; for EMIL: at most 0.2.
For the variant TMYW, the “one-hybrid fitness for binding parS DNA” value was at most 0.2.
Consider TWTF, for which the “one-hybrid fitness for binding parS DNA” value was at most 0.2.
With AQTT the figure was at most 0.2.
In the case of EYKS, the “one-hybrid fitness for binding parS DNA” value is at most 0.2.
The same measure for QPSD: at most 0.2; for HPGC: at most 0.2.
Consider VEGP, for which the “one-hybrid fitness for binding parS DNA” value was at most 0.2.
The same measure for PEPE: at most 0.2.
The same measure for WCRR: at most 0.2; for YHPY: at most 0.2.
With EQSG the figure was at most 0.2; with QFSV, at most 0.2; with NQHQ, at most 0.2.
Take QSKY: the “one-hybrid fitness for binding parS DNA” value was at most 0.2.
The same measure for PKLR: at most 0.2; for GSST: at most 0.2; for FHRT: at most 0.2.
The same measure for TGMG: at most 0.2.
The same measure for YWSP: at most 0.2; for INPS: at most 0.2; for RNMG: 0.819.
Take VCPG: the “one-hybrid fitness for binding parS DNA” value was at most 0.2.
For the variant SSGP, the “one-hybrid fitness for binding parS DNA” value was at most 0.2.
The same measure for AYQQ: at most 0.2; for EHAC: at most 0.2; for HGHL: at most 0.2.
With QKIC the figure was at most 0.2.
Consider ECMT, for which the “one-hybrid fitness for binding parS DNA” value was at most 0.2.
With NADT the figure was at most 0.2.
On to PGHN, for which the “one-hybrid fitness for binding parS DNA” value was at most 0.2.
With LVAR, the “one-hybrid fitness for binding parS DNA” value is at most 0.2.
The same measure for QYHN: at most 0.2; for HPLT: at most 0.2.
With VQAV the figure was at most 0.2; with KVRR, at most 0.2.
The same measure for WPFF: at most 0.2; for WYAI: at most 0.2; for DTIR: at most 0.2.
Turning to ATAP, the “one-hybrid fitness for binding parS DNA” value was at most 0.2.
With SQGC the figure was at most 0.2; with RLKT, 0.799; with TYFT, at most 0.2.
The same measure for FLVG: at most 0.2.
With TTLN the figure was at most 0.2; with VYAS, at most 0.2.
For VKNF, the “one-hybrid fitness for binding parS DNA” value is at most 0.2.
Consider QDEG, for which the “one-hybrid fitness for binding parS DNA” value was at most 0.2.
HYKF: the “one-hybrid fitness for binding parS DNA” value was at most 0.2.
With PNLL the figure was at most 0.2; with AVER, at most 0.2.
With PRFR the figure was at most 0.2.
The same measure for SRND: at most 0.2; for VRES: 0.213.
With CCTF, the “one-hybrid fitness for binding parS DNA” value is at most 0.2.
With WKLS the figure was at most 0.2; with RIWS, 1.05.
The same measure for LHSR: at most 0.2.
With MSSS the figure was at most 0.2.
Consider IPTL, for which the “one-hybrid fitness for binding parS DNA” value is at most 0.2.
In the case of KPTS, the “one-hybrid fitness for binding parS DNA” value was at most 0.2.
With TPAC the figure was at most 0.2; with RDLD, at most 0.2; with DRTG, at most 0.2.
The same measure for VKRF: at most 0.2.
With YHHL the figure was at most 0.2; with PYSN, at most 0.2; with SKEG, at most 0.2.
Regarding CSLT, the “one-hybrid fitness for binding parS DNA” value is at most 0.2.
The same measure for WAMG: at most 0.2; for FGRS: at most 0.2.
With KRMM the figure was at most 0.2; with EAAR, at most 0.2.
With HYIS the figure was at most 0.2.
In the case of PDPG, the “one-hybrid fitness for binding parS DNA” value was at most 0.2.
The same measure for FGQL: at most 0.2; for RRQA: 0.699; for FLLP: at most 0.2.
Consider LANG, for which the “one-hybrid fitness for binding parS DNA” value was at most 0.2.
With NNAY, the “one-hybrid fitness for binding parS DNA” value was at most 0.2.
With PRGE the figure was at most 0.2.
With EHPR the figure was at most 0.2; with SFMG, at most 0.2.
With AWHC the figure was at most 0.2; with KPRY, at most 0.2.
With CHDY, the “one-hybrid fitness for binding parS DNA” value was at most 0.2.
With VQRA the figure was at most 0.2; with REHR, at most 0.2; with DWCR, at most 0.2.
With ATAV the figure was at most 0.2.
For NGSF, the “one-hybrid fitness for binding parS DNA” value was at most 0.2.
With REAI the figure was at most 0.2.
The same measure for LTTD: at most 0.2; for HYSK: at most 0.2; for RNPQ: at most 0.2.
As for EHIT, the “one-hybrid fitness for binding parS DNA” value was at most 0.2.
For VVKT, the “one-hybrid fitness for binding parS DNA” value is at most 0.2.
The same measure for TTFI: at most 0.2; for VTTD: at most 0.2; for ELNV: at most 0.2.
The same measure for VEFS: at most 0.2.
On to QDPV, for which the “one-hybrid fitness for binding parS DNA” value is at most 0.2.
GKCR: the “one-hybrid fitness for binding parS DNA” value was at most 0.2.
Consider MKDR, for which the “one-hybrid fitness for binding parS DNA” value is at most 0.2.
The same measure for EPIK: at most 0.2; for AENG: at most 0.2; for RVSI: at most 0.2.
The same measure for VFST: at most 0.2.
Take GWRR: the “one-hybrid fitness for binding parS DNA” value is at most 0.2.
With SEKN the figure was at most 0.2; with PKQN, at most 0.2; with HVVV, at most 0.2.
With HNVC the figure was at most 0.2; with RIRG, 0.955; with EDRA, at most 0.2.
The same measure for GSSP: at most 0.2; for HDTT: at most 0.2.
As for KHEA, the “one-hybrid fitness for binding parS DNA” value is at most 0.2.
The same measure for ERNR: at most 0.2; for APTD: at most 0.2.
For RVWT, the “one-hybrid fitness for binding parS DNA” value turned out to be 0.886.
The same measure for LWYN: at most 0.2; for ETNG: at most 0.2; for CHQS: at most 0.2.
The same measure for QEQW: at most 0.2; for SSSI: at most 0.2; for MWMK: at most 0.2.
As to KMNV, the “one-hybrid fitness for binding parS DNA” value was at most 0.2.
The same measure for QCLC: at most 0.2; for NDNS: at most 0.2.

The record behind these values is a collection of fitness landscapes (doi:10.1016/j.celrep.2020.107928).
